Data on 12 sequences can be found in the supplement of paper PMC12230231.

± gives the standard deviation of the averaged measurements. Restriction of a single-cycle SIVsab GFP reporter by TRIM5α v1-loop variants in CRFK cells. Human variants: read share among cells still uninfected after two challenges over input, higher = gained restriction. Rhesus variants: share among infected cells over input, higher = lost restriction. Reporter dose not given per row. No active / inactive call per row; the paper calls a change when both replicates lie above its controls (mean + 2 SD of stop or wild-type variants, or the top frameshift score). Residues outside the varied loop are taken from Swiss-Prot. The paper reads the human single-substitution scores as noise; they and the rhesus combinations repeat poorly (rank correlation 0.3 to 0.4), indel scores repeat only for the top variants, rhesus substitutions well (0.9).

This data set has as its system SIVsab (simian immunodeficiency virus of sabaeus monkeys), single-cycle GFP reporter, in CRFK cells. The data set can be described thus: enrichment among uninfected cells over input (fold); higher = stronger restriction. To be noted: library: insertions and deletions. The method, then:
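Pools of CRFK cells expressing variants of the TRIM5α v1 loop were challenged with the single-cycle reporter, sorted by GFP and sequenced; mean of two replicates.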
Sequence “MASGILVNVKEEVTCPICLELLTQPLSLDCGHSFCQACLTANHKKSMLDKGESSCPVCRISYQPENIRPNRHVANIVEKLREVKLSPEGQKVDHCARHGEKLLLFCQEDGKVICWLCERSQEHRGHHTFLTEEVAREYQVKLQAALEMLRQKQQEAEELEADIREEKASWKTQIQYDKTNVLADFEQLRDILDWEESNELQNLEKEEEDILKSLTNSETEMVQQTQSLRELISDLEHRLQGSVMELLQGVDGVIKRTENVTLKKPETFPKNQRRVFRAPDLKGMLEVFRELTDVRRYWVDVTVAPNNISCAVISEDKRQVSSPKPQIIYGARGTRYQTFVFVNFNYCTGILGSQSITSGKHYWEVDVSKKTAWILGVCAGFQPDAMCNIEKNENYQPKYGYWVIGLEEGVKCSAFQDSSFHTPSVPFIVPLSVIICPDRVGVFLDYEACTVSFFNITNHGFLIYKFSHCSFSQPVFPYLNPRKCGVPMTLCSPSS [human TRIM5α, 2-codon duplication at 339]” yielded an enrichment of 0.3511 ± 0.0014.

“MASGILVNVKEEVTCPICLELLTQPLSLDCGHSFCQACLTANHKKSMLDKGESSCPVCRISYQPENIRPNRHVANIVEKLREVKLSPEGQKVDHCARHGEKLLLFCQEDGKVICWLCERSQEHRGHHTFLTEEVAREYQVKLQAALEMLRQKQQEAEELEADIREEKASWKTQIQYDKTNVLADFEQLRDILDWEESNELQNLEKEEEDILKSLTNSETEMVQQTQSLRELISDLEHRLQGSVMELLQGVDGVIKRTENVTLKKPETFPKNQRRVFRAPDLKGMLEVFRELTDVRRYWVDVTVAPNNISCAVISEDKRQVSSPKPQIIYGARGTRYQTFVGILGSQSITSGKHYWEVDVSKKTAWILGVCAGFQPDAMCNIEKNENYQPKYGYWVIGLEEGVKCSAFQDSSFHTPSVPFIVPLSVIICPDRVGVFLDYEACTVSFFNITNHGFLIYKFSHCSFSQPVFPYLNPRKCGVPMTLCSPSS [human TRIM5α, 6-codon deletion at 341]” displayed an enrichment of 0.808 ± 0.3.

As to “MASGILVNVKEEVTCPICLELLTQPLSLDCGHSFCQACLTANHKKSMLDKGESSCPVCRISYQPENIRPNRHVANIVEKLREVKLSPEGQKVDHCARHGEKLLLFCQEDGKVICWLCERSQEHRGHHTFLTEEVAREYQVKLQAALEMLRQKQQEAEELEADIREEKASWKTQIQYDKTNVLADFEQLRDILDWEESNELQNLEKEEEDILKSLTNSETEMVQQTQSLRELISDLEHRLQGSVMELLQGVDGVIKRTENVTLKKPETFPKNQRRVFRAPDLKGMLEVFRELTDVRRYWVDVTVAPNNISCAVISEDKRQVSSPKPQIIYGARGTRYQTFVGSQSITSGKHYWEVDVSKKTAWILGVCAGFQPDAMCNIEKNENYQPKYGYWVIGLEEGVKCSAFQDSSFHTPSVPFIVPLSVIICPDRVGVFLDYEACTVSFFNITNHGFLIYKFSHCSFSQPVFPYLNPRKCGVPMTLCSPSS [human TRIM5α, 9-codon deletion at 341]”, the enrichment worked out at 1.83 ± 0.42.

“MASGILVNVKEEVTCPICLELLTQPLSLDCGHSFCQACLTANHKKSMLDKGESSCPVCRISYQPENIRPNRHVANIVEKLREVKLSPEGQKVDHCARHGEKLLLFCQEDGKVICWLCERSQEHRGHHTFLTEEVAREYQVKLQAALEMLRQKQQEAEELEADIREEKASWKTQIQYDKTNVLADFEQLRDILDWEESNELQNLEKEEEDILKSLTNSETEMVQQTQSLRELISDLEHRLQGSVMELLQGVDGVIKRTENVTLKKPETFPKNQRRVFRAPDLKGMLEVFRELTDVRRYWVDVTVAPNNISCAVISEDKRQVSSPKPQIIYGARGTRYQTFVGTRYQTFVNFNYCTGILGSQSITSGKHYWEVDVSKKTAWILGVCAGFQPDAMCNIEKNENYQPKYGYWVIGLEEGVKCSAFQDSSFHTPSVPFIVPLSVIICPDRVGVFLDYEACTVSFFNITNHGFLIYKFSHCSFSQPVFPYLNPRKCGVPMTLCSPSS [human TRIM5α, 8-codon duplication at 333]” registered an enrichment of 0.498 ± 0.24.

Sequence “MASGILVNVKEEVTCPICLELLTQPLSLDCGHSFCQACLTANHKKSMLDKGESSCPVCRISYQPENIRPNRHVANIVEKLREVKLSPEGQKVDHCARHGEKLLLFCQEDGKVICWLCERSQEHRGHHTFLTEEVAREYQVKLQAALEMLRQKQQEAEELEADIREEKASWKTQIQYDKTNVLADFEQLRDILDWEESNELQNLEKEEEDILKSLTNSETEMVQQTQSLRELISDLEHRLQGSVMELLQGVDGVIKRTENVTLKKPETFPKNQRRVFRAPDLKGMLEVFRELTDVRRYWVDVTVAPNNISCAVISEDKRQVSSPKPQIIYGARGTRYQTFVILGSQSITSGKHYWEVDVSKKTAWILGVCAGFQPDAMCNIEKNENYQPKYGYWVIGLEEGVKCSAFQDSSFHTPSVPFIVPLSVIICPDRVGVFLDYEACTVSFFNITNHGFLIYKFSHCSFSQPVFPYLNPRKCGVPMTLCSPSS [human TRIM5α, 7-codon deletion at 341]” had an enrichment of 1.06 ± 0.63.

On to “MASGILVNVKEEVTCPICLELLTQPLSLDCGHSFCQACLTANHKKSMLDKGESSCPVCRISYQPENIRPNRHVANIVEKLREVKLSPEGQKVDHCARHGEKLLLFCQEDGKVICWLCERSQEHRGHHTFLTEEVAREYQVKLQAALEMLRQKQQEAEELEADIREEKASWKTQIQYDKTNVLADFEQLRDILDWEESNELQNLEKEEEDILKSLTNSETEMVQQTQSLRELISDLEHRLQGSVMELLQGVDGVIKRTENVTLKKPETFPKNQRRVFRAPDLKGMLEVFRELTDVRRYWVDVTVAPNNISCAVISEDKRQVSSPKPQIIYGARGTRYQTFVLGSQSITSGKHYWEVDVSKKTAWILGVCAGFQPDAMCNIEKNENYQPKYGYWVIGLEEGVKCSAFQDSSFHTPSVPFIVPLSVIICPDRVGVFLDYEACTVSFFNITNHGFLIYKFSHCSFSQPVFPYLNPRKCGVPMTLCSPSS [human TRIM5α, 8-codon deletion at 341]”, for which the enrichment is 0.916 ± 0.45.

“MASGILVNVKEEVTCPICLELLTQPLSLDCGHSFCQACLTANHKKSMLDKGESSCPVCRISYQPENIRPNRHVANIVEKLREVKLSPEGQKVDHCARHGEKLLLFCQEDGKVICWLCERSQEHRGHHTFLTEEVAREYQVKLQAALEMLRQKQQEAEELEADIREEKASWKTQIQYDKTNVLADFEQLRDILDWEESNELQNLEKEEEDILKSLTNSETEMVQQTQSLRELISDLEHRLQGSVMELLQGVDGVIKRTENVTLKKPETFPKNQRRVFRAPDLKGMLEVFRELTDVRRYWVDVTVAPNNISCAVISEDKRQVSSPKPQIIYGARGTRYQTFVNCTGILGSQSITSGKHYWEVDVSKKTAWILGVCAGFQPDAMCNIEKNENYQPKYGYWVIGLEEGVKCSAFQDSSFHTPSVPFIVPLSVIICPDRVGVFLDYEACTVSFFNITNHGFLIYKFSHCSFSQPVFPYLNPRKCGVPMTLCSPSS [human TRIM5α, 3-codon deletion at 342]” displayed an enrichment of 1.27 ± 0.98.

“MASGILVNVKEEVTCPICLELLTQPLSLDCGHSFCQACLTANHKKSMLDKGESSCPVCRISYQPENIRPNRHVANIVEKLREVKLSPEGQKVDHCARHGEKLLLFCQEDGKVICWLCERSQEHRGHHTFLTEEVAREYQVKLQAALEMLRQKQQEAEELEADIREEKASWKTQIQYDKTNVLADFEQLRDILDWEESNELQNLEKEEEDILKSLTNSETEMVQQTQSLRELISDLEHRLQGSVMELLQGVDGVIKRTENVTLKKPETFPKNQRRVFRAPDLKGMLEVFRELTDVRRYWVDVTVAPNNISCAVISEDKRQVSSPKPQIIYGARGTRYQTFVNFCTGILGSQSITSGKHYWEVDVSKKTAWILGVCAGFQPDAMCNIEKNENYQPKYGYWVIGLEEGVKCSAFQDSSFHTPSVPFIVPLSVIICPDRVGVFLDYEACTVSFFNITNHGFLIYKFSHCSFSQPVFPYLNPRKCGVPMTLCSPSS [human TRIM5α, 2-codon deletion at 343]” registered an enrichment of 0.63 ± 0.071.

The sequence “MASGILVNVKEEVTCPICLELLTQPLSLDCGHSFCQACLTANHKKSMLDKGESSCPVCRISYQPENIRPNRHVANIVEKLREVKLSPEGQKVDHCARHGEKLLLFCQEDGKVICWLCERSQEHRGHHTFLTEEVAREYQVKLQAALEMLRQKQQEAEELEADIREEKASWKTQIQYDKTNVLADFEQLRDILDWEESNELQNLEKEEEDILKSLTNSETEMVQQTQSLRELISDLEHRLQGSVMELLQGVDGVIKRTENVTLKKPETFPKNQRRVFRAPDLKGMLEVFRELTDVRRYWVDVTVAPNNISCAVISEDKRQVSSPKPQIIYGARGTRYQTFVNFFNYCTGILGSQSITSGKHYWEVDVSKKTAWILGVCAGFQPDAMCNIEKNENYQPKYGYWVIGLEEGVKCSAFQDSSFHTPSVPFIVPLSVIICPDRVGVFLDYEACTVSFFNITNHGFLIYKFSHCSFSQPVFPYLNPRKCGVPMTLCSPSS [human TRIM5α, 1-codon duplication at 342]” had an enrichment of 0.889 ± 0.55.

In turn, “MASGILVNVKEEVTCPICLELLTQPLSLDCGHSFCQACLTANHKKSMLDKGESSCPVCRISYQPENIRPNRHVANIVEKLREVKLSPEGQKVDHCARHGEKLLLFCQEDGKVICWLCERSQEHRGHHTFLTEEVAREYQVKLQAALEMLRQKQQEAEELEADIREEKASWKTQIQYDKTNVLADFEQLRDILDWEESNELQNLEKEEEDILKSLTNSETEMVQQTQSLRELISDLEHRLQGSVMELLQGVDGVIKRTENVTLKKPETFPKNQRRVFRAPDLKGMLEVFRELTDVRRYWVDVTVAPNNISCAVISEDKRQVSSPKPQIIYGARGTRYQTFVNFFVNFNYCTGILGSQSITSGKHYWEVDVSKKTAWILGVCAGFQPDAMCNIEKNENYQPKYGYWVIGLEEGVKCSAFQDSSFHTPSVPFIVPLSVIICPDRVGVFLDYEACTVSFFNITNHGFLIYKFSHCSFSQPVFPYLNPRKCGVPMTLCSPSS [human TRIM5α, 4-codon duplication at 339]” gave an enrichment of 0.24 ± 0.34.

“MASGILVNVKEEVTCPICLELLTQPLSLDCGHSFCQACLTANHKKSMLDKGESSCPVCRISYQPENIRPNRHVANIVEKLREVKLSPEGQKVDHCARHGEKLLLFCQEDGKVICWLCERSQEHRGHHTFLTEEVAREYQVKLQAALEMLRQKQQEAEELEADIREEKASWKTQIQYDKTNVLADFEQLRDILDWEESNELQNLEKEEEDILKSLTNSETEMVQQTQSLRELISDLEHRLQGSVMELLQGVDGVIKRTENVTLKKPETFPKNQRRVFRAPDLKGMLEVFRELTDVRRYWVDVTVAPNNISCAVISEDKRQVSSPKPQIIYGARGTRYQTFVNFGILGSQSITSGKHYWEVDVSKKTAWILGVCAGFQPDAMCNIEKNENYQPKYGYWVIGLEEGVKCSAFQDSSFHTPSVPFIVPLSVIICPDRVGVFLDYEACTVSFFNITNHGFLIYKFSHCSFSQPVFPYLNPRKCGVPMTLCSPSS [human TRIM5α, 4-codon deletion at 343]” showed an enrichment of 0.603 ± 0.48.

“MASGILVNVKEEVTCPICLELLTQPLSLDCGHSFCQACLTANHKKSMLDKGESSCPVCRISYQPENIRPNRHVANIVEKLREVKLSPEGQKVDHCARHGEKLLLFCQEDGKVICWLCERSQEHRGHHTFLTEEVAREYQVKLQAALEMLRQKQQEAEELEADIREEKASWKTQIQYDKTNVLADFEQLRDILDWEESNELQNLEKEEEDILKSLTNSETEMVQQTQSLRELISDLEHRLQGSVMELLQGVDGVIKRTENVTLKKPETFPKNQRRVFRAPDLKGMLEVFRELTDVRRYWVDVTVAPNNISCAVISEDKRQVSSPKPQIIYGARGTRYQTFVNFGSQSITSGKHYWEVDVSKKTAWILGVCAGFQPDAMCNIEKNENYQPKYGYWVIGLEEGVKCSAFQDSSFHTPSVPFIVPLSVIICPDRVGVFLDYEACTVSFFNITNHGFLIYKFSHCSFSQPVFPYLNPRKCGVPMTLCSPSS [human TRIM5α, 7-codon deletion at 343]” registered an enrichment of 2.02 ± 0.89.
